Assay results from PMC6664820, “Novel natural and synthetic inhibitors of solute carriers SGLT1 and SGLT2” (Pharmacology Research & Perspectives, 2019).
The campaign covered roughly 1,900 compounds. About 40 (2%) showed an effect of 50% or more. Some of the results follow. Starred links: 1 amine or outer side, 2 acyl side, 3 side chain; linkers in the order of their positions; H or OH if unused. Positions of bridges follow the written chain, without caps; N, C: chain ends. Non-standard residues stand in square brackets, D forms with d. Residues, ends and D or L forms follow the SMILES beside them. ξ: configuration not given here. *: point of attachment. ΔAla(E,3-NHCONH2) = NC(=O)N/C=C(/N)C(=O)O; X1 = N=C1NCCC(C(N[*:1])C(=O)[*:2])N1; ξβ3hOrn = NCCCC(N)CC(=O)*; Dap = NC[CH](N)C(=O)O

What follows are compounds tested against human SGLT1 (hSGLT1) (human, UniProt P13866) (assay: primary screen, percent of control activity; higher = less effect of the substance). Conditions: 50 µM.
Design: single well
Summary of the method: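 Single-point screen at 50 µmol/L in CHO-hSGLT1 cells, with 160 µmol/L 1-NBD-glucose in glucose-free DMEM for 90 min at 37°C. Fluorescence from isopropanol extracts was calibrated, and CHO wild-type uptake was subtracted. Data are percent of uptake without compound.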
With O=P(O)(O)O.c1ccc(CN(CC2=NCCN2)c2ccccc2)cc1 the “NORMALIZED SGLT1 ACTIVITY (%)” value was 87%. With COC(=O)COc1ccc(Cl)cc1Cl the “NORMALIZED SGLT1 ACTIVITY (%)” value was 235%. With Nc1ccc(S(=O)(=O)c2ccc(N)cc2)cc1 the “NORMALIZED SGLT1 ACTIVITY (%)” value was 97%. In the case of O=C1NS(=O)(=O)c2ccccc21, the “NORMALIZED SGLT1 ACTIVITY (%)” value was 91%. CN(C)CCCN1c2ccccc2CCc2ccccc21.Cl was tested, and the “NORMALIZED SGLT1 ACTIVITY (%)” value was 76%. NC(=O)NCCC[C@H](N)C(=O)O was tested, and the “NORMALIZED SGLT1 ACTIVITY (%)” value was 98%. With CC(N)C(O)c1ccc(O)c(O)c1.Cl (stereo not drawn) the “NORMALIZED SGLT1 ACTIVITY (%)” value was 124%. For CCN(CC)CCOC(=O)C(Cc1cccc2ccccc12)CC1CCCO1.O=C(O)C(=O)O (stereo not drawn), the “NORMALIZED SGLT1 ACTIVITY (%)” value was 116%. In the case of C=C[C@H]1CN2CC[C@H]1C[C@@H]2[C@H](O)c1ccnc2ccc(OC)cc12.O=S(=O)(O)O, the “NORMALIZED SGLT1 ACTIVITY (%)” value was 77%. With COc1ccc(-c2cc(C(F)F)nn2-c2ccc(S(N)(=O)=O)cc2)cc1F the “NORMALIZED SGLT1 ACTIVITY (%)” value was 144%. With O=c1cc(-c2ccccc2)oc2c(O)c(O)ccc12 the “NORMALIZED SGLT1 ACTIVITY (%)” value was 282%. In the case of Cl.NNc1nncc2ccccc12, the “NORMALIZED SGLT1 ACTIVITY (%)” value was 144%. For CC(=O)OCC(=O)[C@@]12OC(C)(C)O[C@@H]1C[C@H]1[C@@H]3C[C@H](F)C4=CC(=O)C=C[C@]4(C)[C@@]3(F)[C@@H](O)C[C@@]12C, the “NORMALIZED SGLT1 ACTIVITY (%)” value was 127%. With O=C1[N-]C(=O)C(c2ccccc2)(c2ccccc2)N1.[Na+] the “NORMALIZED SGLT1 ACTIVITY (%)” value was 129%. C[C@@H]1C[C@@H]([C@H](O)CC2CC(=O)NC(=O)C2)C(=O)[C@@H](C)C1 was tested, and the “NORMALIZED SGLT1 ACTIVITY (%)” value was 97%. For Clc1ccc2c(c1)C(N1CCNCC1)=Nc1ccccc1O2, the “NORMALIZED SGLT1 ACTIVITY (%)” value was 162%. With CCCCN(CC)c1c([N+](=O)[O-])cc(C(F)(F)F)cc1[N+](=O)[O-] the “NORMALIZED SGLT1 ACTIVITY (%)” value was 63%. In the case of C[C@@H]1CC[C@@]2(OC1)OC1CC3C4CC=C5C[C@@H](O)CC[C@]5(C)C4CC[C@]3(C)C1[C@@H]2C (stereo partly drawn), the “NORMALIZED SGLT1 ACTIVITY (%)” value was 97%. For Cl.c1cncc(C2CCCCN2)c1 (stereo not drawn), the “NORMALIZED SGLT1 ACTIVITY (%)” value was 68%. For N=C(N)NCCCCNC(=N)N.O=S(=O)(O)O, the “NORMALIZED SGLT1 ACTIVITY (%)” value was 113%. In the case of N=C1NCCC(C2NC(=O)/C(=C\NC(N)=O)NC(=O)C(CNC(=O)CC(N)CCCN)NC(=O)C(CO)NC(=O)C(N)CNC2=O)N1.O=S(=O)(O)O (stereo not drawn) (H-[Dap]S[Dap](ξβ3hOrn)[ΔAla(E,3-NHCONH2)][X1]; lactam 1-C; configuration not given here), the “NORMALIZED SGLT1 ACTIVITY (%)” value was 116%. For N#CC(O[C@@H]1O[C@H](CO[C@@H]2O[C@H](CO)[C@@H](O)[C@H](O)[C@H]2O)[C@@H](O)[C@H](O)[C@H]1O)c1ccccc1 (stereo partly drawn), the “NORMALIZED SGLT1 ACTIVITY (%)” value was 103%. For NC[C@H]1O[C@H](O[C@H]2[C@H](O)[C@@H](O[C@H]3O[C@H](CO)[C@@H](O)[C@H](N)[C@H]3O)[C@H](N)C[C@@H]2N)[C@H](O)[C@@H](O)[C@@H]1O.O=S(=O)(O)O, the “NORMALIZED SGLT1 ACTIVITY (%)” value was 143%. CC1(C)Oc2ccc3ccc(=O)oc3c2CC1O (stereo not drawn) was tested, and the “NORMALIZED SGLT1 ACTIVITY (%)” value was 159%. With CCn1cc(C(=O)O)c(=O)c2cc(F)c(N3CCNC(C)C3)c(F)c21.Cl (stereo not drawn) the “NORMALIZED SGLT1 ACTIVITY (%)” value was 156%. In the case of Nc1ncnc2c1ncn2[C@@H]1O[C@H](CO)[C@@H](O)[C@H]1O, the “NORMALIZED SGLT1 ACTIVITY (%)” value was 161%. In the case of COc1ccc(CN(CCN(C)C)c2ccccn2)cc1.O=C(O)/C=C\C(=O)O, the “NORMALIZED SGLT1 ACTIVITY (%)” value was 62%. For Cc1cc(O)c(C=O)c(O)c1C(=O)O, the “NORMALIZED SGLT1 ACTIVITY (%)” value was 102%. For O=C(O)c1cccnc1, the “NORMALIZED SGLT1 ACTIVITY (%)” value was 122%. In the case of CCC(C)(C)C(=O)O[C@H]1C[C@@H](C)C=C2C=C[C@H](C)[C@H](CC[C@@H]3C[C@@H](O)CC(=O)O3)[C@H]21, the “NORMALIZED SGLT1 ACTIVITY (%)” value was 96%. For COc1ccc(C(c2ccc(OC)cc2)C(Cl)(Cl)Cl)cc1, the “NORMALIZED SGLT1 ACTIVITY (%)” value was 42%. In the case of OCc1c[nH]c2ccccc12, the “NORMALIZED SGLT1 ACTIVITY (%)” value was 101%. CN(Cc1cc(Br)cc(Br)c1N)C1CCCCC1.Cl was tested, and the “NORMALIZED SGLT1 ACTIVITY (%)” value was 44%. In the case of N[C@@H](Cc1c[nH]c2ccccc12)C(=O)O, the “NORMALIZED SGLT1 ACTIVITY (%)” value was 101%. CN1CCOC(c2ccccc2)c2ccccc2C1 (stereo not drawn) was tested, and the “NORMALIZED SGLT1 ACTIVITY (%)” value was 67%. For CC(=O)Oc1ccc(C(c2ccc(OC(C)=O)cc2)c2ccccn2)cc1, the “NORMALIZED SGLT1 ACTIVITY (%)” value was 109%. For Cl.Cl.O=C1c2c(O)ccc(O)c2C(=O)c2c(NCCNCCO)ccc(NCCNCCO)c21, the “NORMALIZED SGLT1 ACTIVITY (%)” value was 106%. For Cl.Nc1ccc(N=Nc2ccccc2)c(N)n1, the “NORMALIZED SGLT1 ACTIVITY (%)” value was 193%. O=C(O[C@@H]1Cc2c(O)cc(O)cc2O[C@@H]1c1cc(O)c(=O)c2c(O)c(O)cc([C@H]3Oc4cc(O)cc(O)c4C[C@H]3O)c2c1)c1cc(O)c(O)c(O)c1 was tested, and the “NORMALIZED SGLT1 ACTIVITY (%)” value was 98%. In the case of CC(=O)O[C@H]1CC[C@@]2(C)C(=CC[C@H]3[C@@H]4CC[C@H]([C@H](C)CCCC(C)C)[C@@]4(C)CC[C@@H]32)C1, the “NORMALIZED SGLT1 ACTIVITY (%)” value was 95%. O=c1[nH]cnc2nc[nH]c12 was tested, and the “NORMALIZED SGLT1 ACTIVITY (%)” value was 89%. For S=P(N1CC1)(N1CC1)N1CC1, the “NORMALIZED SGLT1 ACTIVITY (%)” value was 142%. CCCN(CCC)c1c([N+](=O)[O-])cc(C(F)(F)F)cc1[N+](=O)[O-] was tested, and the “NORMALIZED SGLT1 ACTIVITY (%)” value was 112%. NC(=O)NCC(N)C(=O)O (stereo not drawn) was tested, and the “NORMALIZED SGLT1 ACTIVITY (%)” value was 137%. COC(=O)C[C@H]1C(C)(C)C(=O)[C@@H]2CC3C4=CC(=O)O[C@@H](c5ccoc5)[C@]4(C)CCC3[C@@]1(C)C2=O (stereo partly drawn) was tested, and the “NORMALIZED SGLT1 ACTIVITY (%)” value was 108%.
